Reference: PMC9911399, “Two distinct binding modes provide the RNA-binding protein RbFox with extraordinary sequence specificity”
Changes are numbered by the printed parent chain; changes in the protein carry UniProt numbers. The list shows a part of the results.

T1: RBFOX1 RRM (Homo sapiens, UniProt Q9NWB1 109-208)
T1 sequence: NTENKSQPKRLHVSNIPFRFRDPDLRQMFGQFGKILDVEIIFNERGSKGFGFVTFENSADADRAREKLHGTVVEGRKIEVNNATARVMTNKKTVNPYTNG

B1: UUGCCGU (DNA:RNA)
RNA: GGGAGACCGGAAUUCAGAUUGUCCUUGCCGUUUAAAUCCCGUCGUAGCCACCA
DNA 1: CAATCTGAATTCCGGTCTCCC
DNA 2: TGGTGGCTACGACGGGATT
B2: UUUGUAC (DNA:RNA)
RNA: B1 RNA with G27U, C28G, C29U, G30A, U31C
DNA 1: CAATCTGAATTCCGGTCTCCC
DNA 2: TGGTGGCTACGACGGGATT
B3: UGAAGAU (DNA:RNA)
RNA: B1 RNA with U26G, G27A, C28A, C29G, G30A
DNA 1: CAATCTGAATTCCGGTCTCCC
DNA 2: TGGTGGCTACGACGGGATT
B4: UCCAGUG (DNA:RNA)
RNA: B1 RNA with U26C, G27C, C28A, C29G, G30U, U31G
DNA 1: CAATCTGAATTCCGGTCTCCC
DNA 2: TGGTGGCTACGACGGGATT
B5: AGUGCUC (DNA:RNA)
RNA: B1 RNA with U25A, U26G, G27U, C28G, G30U, U31C
DNA 1: CAATCTGAATTCCGGTCTCCC
DNA 2: TGGTGGCTACGACGGGATT
B6: GCGUGCG (DNA:RNA)
RNA: B1 RNA with U25G, U26C, C28U, C29G, G30C, U31G
DNA 1: CAATCTGAATTCCGGTCTCCC
DNA 2: TGGTGGCTACGACGGGATT
B7: CCCGGCG (DNA:RNA)
RNA: GGGAGACCGGAAUUCAGAUUGUCCCCCGGCGUUAAAUCCCGUCGUAGCCACCA
DNA 1: CAATCTGAATTCCGGTCTCCC
DNA 2: TGGTGGCTACGACGGGATT
B8: CCGAACG (DNA:RNA)
RNA: B7 RNA with C27G, G28A, G29A
DNA 1: CAATCTGAATTCCGGTCTCCC
DNA 2: TGGTGGCTACGACGGGATT
B9: GAUACGG (DNA:RNA)
RNA: B1 RNA with U25G, U26A, G27U, C28A, U31G
DNA 1: CAATCTGAATTCCGGTCTCCC
DNA 2: TGGTGGCTACGACGGGATT
B10: AAUGAUA (DNA:RNA)
RNA: B7 RNA with C25A, C26A, C27U, G29A, C30U, G31A
DNA 1: CAATCTGAATTCCGGTCTCCC
DNA 2: TGGTGGCTACGACGGGATT
B11: UAUCCCG (DNA:RNA)
RNA: B1 RNA with U26A, G27U, G30C, U31G
DNA 1: CAATCTGAATTCCGGTCTCCC
DNA 2: TGGTGGCTACGACGGGATT
B12: CGCAAGG (DNA:RNA)
RNA: B7 RNA with C26G, G28A, G29A, C30G
DNA 1: CAATCTGAATTCCGGTCTCCC
DNA 2: TGGTGGCTACGACGGGATT
B13: CUUUCAC (DNA:RNA)
RNA: B1 RNA with U25C, G27U, C28U, G30A, U31C
DNA 1: CAATCTGAATTCCGGTCTCCC
DNA 2: TGGTGGCTACGACGGGATT
B14: UAAGAUG (DNA:RNA)
RNA: B7 RNA with C25U, C26A, C27A, G29A, C30U
DNA 1: CAATCTGAATTCCGGTCTCCC
DNA 2: TGGTGGCTACGACGGGATT
B15: CCUUAGC (DNA:RNA)
RNA: B7 RNA with C27U, G28U, G29A, C30G, G31C
DNA 1: CAATCTGAATTCCGGTCTCCC
DNA 2: TGGTGGCTACGACGGGATT
B16: GGAUUCG (DNA:RNA)
RNA: B7 RNA with C25G, C26G, C27A, G28U, G29U
DNA 1: CAATCTGAATTCCGGTCTCCC
DNA 2: TGGTGGCTACGACGGGATT
B17: UAAUAAG (DNA:RNA)
RNA: B7 RNA with C25U, C26A, C27A, G28U, G29A, C30A
DNA 1: CAATCTGAATTCCGGTCTCCC
DNA 2: TGGTGGCTACGACGGGATT
B18: CUCUUGC (DNA:RNA)
RNA: B7 RNA with C26U, G28U, G29U, C30G, G31C
DNA 1: CAATCTGAATTCCGGTCTCCC
DNA 2: TGGTGGCTACGACGGGATT
B19: UAGUGCU (DNA:RNA)
RNA: B1 RNA with U26A, C28U, C29G, G30C
DNA 1: CAATCTGAATTCCGGTCTCCC
DNA 2: TGGTGGCTACGACGGGATT
B20: AGAGUAU (DNA:RNA)
RNA: B7 RNA with C25A, C26G, C27A, G29U, C30A, G31U
DNA 1: CAATCTGAATTCCGGTCTCCC
DNA 2: TGGTGGCTACGACGGGATT
B21: CGUGAGG (DNA:RNA)
RNA: B7 RNA with C26G, C27U, G29A, C30G
DNA 1: CAATCTGAATTCCGGTCTCCC
DNA 2: TGGTGGCTACGACGGGATT
B22: GCGGUCC (DNA:RNA)
RNA: B7 RNA with C25G, C27G, G29U, G31C
DNA 1: CAATCTGAATTCCGGTCTCCC
DNA 2: TGGTGGCTACGACGGGATT
B23: GGACCGC (DNA:RNA)
RNA: B1 RNA with U25G, U26G, G27A, U31C
DNA 1: CAATCTGAATTCCGGTCTCCC
DNA 2: TGGTGGCTACGACGGGATT
B24: ACGAAGU (DNA:RNA)
RNA: B1 RNA with U25A, U26C, C28A, C29A
DNA 1: CAATCTGAATTCCGGTCTCCC
DNA 2: TGGTGGCTACGACGGGATT
B25: AGAGACA (DNA:RNA)
RNA: B7 RNA with C25A, C26G, C27A, G29A, G31A
DNA 1: CAATCTGAATTCCGGTCTCCC
DNA 2: TGGTGGCTACGACGGGATT
B26: CUACCGG (DNA:RNA)
RNA: B1 RNA with U25C, G27A, U31G
DNA 1: CAATCTGAATTCCGGTCTCCC
DNA 2: TGGTGGCTACGACGGGATT
B27: CGUGCGG (DNA:RNA)
RNA: B7 RNA with C26G, C27U, G29C, C30G
DNA 1: CAATCTGAATTCCGGTCTCCC
DNA 2: TGGTGGCTACGACGGGATT
B28: GCCACAG (DNA:RNA)
RNA: B7 RNA with C25G, G28A, G29C, C30A
DNA 1: CAATCTGAATTCCGGTCTCCC
DNA 2: TGGTGGCTACGACGGGATT
B29: CUGUCUC (DNA:RNA)
RNA: B1 RNA with U25C, C28U, G30U, U31C
DNA 1: CAATCTGAATTCCGGTCTCCC
DNA 2: TGGTGGCTACGACGGGATT
B30: AGUCGCU (DNA:RNA)
RNA: B7 RNA with C25A, C26G, C27U, G28C, G31U
DNA 1: CAATCTGAATTCCGGTCTCCC
DNA 2: TGGTGGCTACGACGGGATT
B31: CGCUCGG (DNA:RNA)
RNA: B7 RNA with C26G, G28U, G29C, C30G
DNA 1: CAATCTGAATTCCGGTCTCCC
DNA 2: TGGTGGCTACGACGGGATT

molecular target: T1, RBFOX1 RRM; experiment: EMSA; HiTS-Eq, 1 nM pool, 10 min; buffer printed only for the single-RNA assays: 10 mM Tris pH 7.5, 150 mM NaCl, 3.4 mM EDTA, 0.001% NP-40, 30 C; settings: tags: His6 N-terminal (pET28a); label: 5' 32P
Outline: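 These values rest on relative association constants, computed from read-count changes of each RNA species versus the control reaction and normalised to the cognate motif. Reads came from free RNA recovered by 8% native PAGE after purified RbFox RRM (wild type or mutant) at increasing concentrations was equilibrated for 10 min in 50 µL with 1 nM of a 5′-radiolabelled pool with 7 randomized nucleotides and DNA-annealed flanks.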

Row | Binder | binding signal
1 | B1 | 0.0175 KA relative to UGCAUGU
2 | B2 | 0.0156 KA relative to UGCAUGU
3 | B3 | 0.0226 KA relative to UGCAUGU
4 | B4 | 0.0101 KA relative to UGCAUGU
5 | B5 | 0.0177 KA relative to UGCAUGU
6 | B6 | 0.017 KA relative to UGCAUGU
7 | B7 | 0.0137 KA relative to UGCAUGU
8 | B8 | 0.0118 KA relative to UGCAUGU
9 | B9 | 0.00671 KA relative to UGCAUGU
10 | B10 | 0.00488 KA relative to UGCAUGU
11 | B11 | 0.00371 KA relative to UGCAUGU
12 | B12 | 0.00874 KA relative to UGCAUGU
13 | B13 | 0.00611 KA relative to UGCAUGU
14 | B14 | 0.0133 KA relative to UGCAUGU
15 | B15 | 0.00898 KA relative to UGCAUGU
16 | B16 | 0.0153 KA relative to UGCAUGU

Row | Binder | binding signal
17 | B17 | 0.00769 KA relative to UGCAUGU
18 | B18 | 0.0102 KA relative to UGCAUGU
19 | B19 | 0.0181 KA relative to UGCAUGU
20 | B20 | 0.00544 KA relative to UGCAUGU
21 | B21 | 0.00739 KA relative to UGCAUGU
22 | B22 | 0.0182 KA relative to UGCAUGU
23 | B23 | 0.0251 KA relative to UGCAUGU
24 | B24 | 0.00549 KA relative to UGCAUGU
25 | B25 | 0.00503 KA relative to UGCAUGU
26 | B26 | 0.00617 KA relative to UGCAUGU
27 | B27 | 0.00947 KA relative to UGCAUGU
28 | B28 | 0.00921 KA relative to UGCAUGU
29 | B29 | 0.0158 KA relative to UGCAUGU
30 | B30 | 0.00547 KA relative to UGCAUGU
31 | B31 | 0.0166 KA relative to UGCAUGU
